These results are taken from PubChem BioAssay AID624171 (National Center for Advancing Translational Sciences (NCATS), 2012).

Out of some 410,000 compounds screened, about 1,200 (0.29%) were called active. Another 2% or so got no clear call; they are omitted. The call rests on the fitted dose curve; in most records, active means well fitted activation curve with a large enough effect; inconclusive means small, poorly fitted or top-dose-only effect; inactive means flat fitted curve, though single readings scatter. Only a part is listed here, and it is no random draw. Where a structure was tested more than once in an assay, its records may differ in their call.
Potency means the concentration at half of the fitted maximal effect.

The test can be described thus: qHTS of Nrf2 Activators. Further: nearly all actives have a fitted effect of over 65% in size. On activation: % of control where 0% means no effect. The following applies: AREc32 ARE-luciferase reporter (MCF7-derived line), luminescence, 24 h; series mostly up to 46.1 µM; activation: at the top concentration. An excerpt: Many diseases have some form of oxidative stress injury and ties to inflammation, causing a host of problems for the patient. The antioxidant response element (ARE) plays an important role in alleviating the harmful effects of oxidative stress. The antioxidant response element (ARE) is a transcriptional regulatory element involved in the activation of genes coding for a number of antioxidant proteins and detoxifying enzymes. These enzymes work in concert to protect tissues from oxidative insults and chemical toxicities in human hepatocytes and immune cells. The protective effects of ARE activation are primarily triggered through Nrf2 (NF-E2-related factor) binding to and activating AREs. It is known that Nrf2 controls the production of over 250 antioxidant and detoxification proteins (Hu et al., 2006), thereby protecting tissues by increasing cellular antioxidant content and suppressing inflammatory signaling pathways. The transcription factor Nrf2 is a central link between oxidative chemicals, such as phenolic antioxidants and electrophilic compounds, and the activation of ARE. Nrf2 levels are constitutively low as a consequence of its interaction with Keap1, which targets its degradation (Zipper and Mulcahy, 2002). Electrophiles react with key cysteine residues in Keap1, releasing Nrf2 and allowing its translocation to the nucleus. Once within the nucleus, Nrf2 complexes with coactivators such as p300, and binds to the AREs to induce gene transcription of cytoprotective enzymes, resulting in the prevention of toxicity. Activation of Nrf2 protects tissues by increasing cellular antioxidant content and suppressing inflammatory signaling pathways. Identifying novel and potent Nrf2 activators by using the AREc32 cell line to detect ARE activation by small molecules will lead to the identification and development of probes to study protective pathways in multiple tissues. These specific probes are essential to study the ARE pathway, and eventually to determine whether this pathway does activate genes that could protect against a host of diseases, including cardiovascular diseases, obesity, diabetes, Alzheimer's, and Parkinson's disease.
This project's aim is to identify novel and potent Nrf2 activators by using the AREc32 cell line to detect ARE activation by small molecules, which will lead to the identification and development of probes to study the ARE pathway.
NIH Chemical Genomics Center [NCGC]
NIH Molecular Libraries Probe Centers Network [MLPCN]
Assay Submitter (PI): Curtis Klaassen, University of Kansas Medical Center
5 uL of 1000 cells/well of AREc32_Fluc cells are seeded into 1536-well plate in OPTI-MEM medium with 5% FBS. The plates are incubated overnight at 37 deg C with 5% CO2. Then through pin tool transfer, 23 nL of compounds are added to each well before a 24 hr incubation at 37 deg C with 5% CO2. After the addition of 2.5 uL of Steady-Glo. the plates are kept at RT for 30 min, before they are read on the ViewLux.
Regarding `O=C1NC(=O)/C(=C/c2ccccc2OCc2ccccc2)S1`, the “activation” value was inactive: 13.3%.

For `COC(=O)N1C(=O)[C@@](c2ccccc2)(C2CCCCC2)N1C(=O)OC`, the “activation” value was inactive: 10.6%.

As for `NC(=O)C1=C[C@H](c2csc3ccccc23)C[C@H](OCc2ccc(CO)cc2)O1`, the “activation” value was inactive: 7.1%.

On to `CC(=O)NN1C(=O)/C(=C\c2ccc(Br)o2)SC1=S`, for which the Potency was active: 15.8 µM.

Turning to `COc1ccc(NC2=C(Cl)C(=O)N(CCc3ccccc3)C2=O)c(OC)c1`, the Potency is active: 12.6 µM.

Consider `COc1ccccc1/C=C/c1nc(C#N)c(N(C)C)o1`, for which the “activation” value was inactive: 17.6%.

In the case of `Cc1ccc(N(C(=O)CCl)C(C(=O)NC2CCCCC2)c2cccnc2)cc1C` (stereo not drawn), the Potency was active: 14.1 µM.

On to `CCOc1ccc(C(=O)CC(C(=O)O)N2CCCCC2)cc1` (stereo not drawn), for which the Potency was active: 15.8 µM.

Take `COc1ccc(Cl)cc1-c1nc(-c2ccncc2)no1`: the Potency was active: 6.31 µM.

Consider `CS(=O)(=O)c1nc(S(=O)(=O)c2ccc(Cl)cc2)c(N2CCOCC2)s1`, for which the Potency is active: 6.31 µM.

For `O=C(NC(=S)Nc1ccccc1Br)c1ccco1`, the Potency was active: 14.1 µM.

Consider `O=C(Nc1ccccn1)c1csc2c1CCCC2`, for which the Potency is active: 5.01 µM.

`Cc1ccccc1NC(=O)c1cc2ccccc2o1`: the activation is inactive: 25.6% [at 9.22 µM].

Take `Cc1cc(C)nc(N/N=C/C2=C(N3CCOCC3)C(=C\c3ccc(Cl)cc3)/CC2)n1`: the “activation” value is inactive: 21.6%.

Turning to `N#C/C(=C\C=C\c1ccccc1)C(=O)Nc1ccccc1`, the “activation” value is inactive: 14.3%.

For `NC(=O)c1ccsc1NC(=O)COC(=O)C1CCCN1C(=O)c1cccs1` (stereo not drawn), the “activation” value was inactive: 29.2%.

For the compound `COc1ccccc1/C=C\C=N\NC(=O)c1ccco1`, the “activation” value was inactive: 6.42%.

Consider `O=C1/C(=C/c2cccnc2)SC(=S)N1C1CCS(=O)(=O)C1` (stereo not drawn), for which the “activation” value was inactive: 18.6%.

`Cn1c(=O)n(C)c2cc(NS(=O)(=O)c3ccc(F)cc3)ccc21`: the “activation” value was inactive: 16.1%.

On to `CC1CCCCC1NC(=O)COC(=O)c1c2c(nc3ccccc13)/C(=C\c1ccco1)CC2` (stereo not drawn), for which the “activation” value was inactive: 20.3%.

Turning to `O=C1C(=Cc2cccc(F)c2)Cc2ccccc21`, the Potency was active: 10 µM.

`Oc1ccc(NCc2ccccc2OCc2ccccc2F)cc1`: the “activation” value was inactive: 25.4%.

On to `CCc1ccc(C(=O)Cn2ncc(Cl)c(Cl)c2=O)cc1`, for which the Potency was active: 10 µM.

Turning to `CSc1ncc(Cl)c(C(=O)Nc2cccnc2)n1`, the Potency is active: 11.2 µM.

With `O=C(Nc1nnc([C@H]2C[C@H](O)[C@@H](CO)O2)s1)c1cccc(C(F)(F)F)c1`, the “activation” value is inactive: 19.7%.

Consider `NS(=O)(=O)c1ccc(NC(=O)c2cc(-c3cccs3)nc3ccccc23)cc1`, for which the “activation” value is inactive: 30.5%.

As for `O=C(CSc1nnc(SCc2ccccc2)s1)N/N=C/C=C\c1ccco1`, the “activation” value is inactive: 22.5%.

As for `CCCN1C(=O)S/C(=C/c2ccc(N3CCOCC3)o2)C1=O`, the “activation” value was inactive: 19.7%.

Take `CSc1nccc(-c2cc(Cl)sc2Cl)n1`: the Potency was active: 11.2 µM.

Regarding `O=S(=O)(/C(=C\c1ccc(C(F)(F)F)cc1)c1nc2ccccc2[nH]1)c1ccccc1`, the “activation” value was inactive: -2.65%.

Regarding `Cc1nnc(NC(=O)c2nc(S(=O)(=O)Cc3ccccc3)ncc2Cl)s1`, the “activation” value is inactive: -2.84%.

Take `O=C(Cc1cccs1)N/N=C/C=C\c1ccco1`: the Potency was active: 11.2 µM.

Turning to `O=C(O)CCC(=O)Nc1sc2c(c1C(=O)Nc1ccccc1)CCCCC2`, the “activation” value was inactive: -1.31%.

Turning to `O=C1/C(=C\c2cccs2)SC(=S)N1C1CCS(=O)(=O)C1` (stereo not drawn), the “activation” value is inactive: 22%.

In the case of `CCn1c(/C=C/c2ccccc2C)nc2ccccc2c1=O`, the “activation” value is inactive: 26.5%.

With `Cc1[nH]nc(N=CC2=C(O)CC(c3ccco3)CC2=O)c1-c1ccccc1` (stereo not drawn), the “activation” value is inactive: 11.7%.

On to `CC(/C=C(\NC(=O)c1ccccc1)C(=O)N=Nc1c(O)[nH]c2ccc(C)cc12)=C\c1ccccc1`, for which the Potency is active: 8.91 µM.

Take `CCS(=O)(=O)c1ncc(Cl)c(C(=O)Nc2ccc(S(=O)(=O)N(C)c3ccccc3)cc2)n1`: the “activation” value was inactive: -6.09%.

`O=C(/C=C/c1ccco1)NC(=S)Nc1ccccc1O`: the “activation” value was inactive: 26%.

For the compound `O=C(CCCN1C(=O)/C(=C\c2ccccc2)SC1=S)Nc1ccccc1O`, the “activation” value was inactive: 23.6%.

For `N#CC1=C(N)C(C#N)(C#N)[C@H](c2ccncc2)[C@H]2CN(C(=O)OCc3ccccc3)CC=C12`, the “activation” value was inactive: 4.81%.

Consider `COc1ccc(/C=C/C(=O)CC(O)(c2ccccc2)C(F)(F)F)cc1` (stereo not drawn), for which the “activation” value was inactive: 17%.

As to `CCOC(=O)N1C(=O)[C@@](c2ccc(Cl)cc2)(C(C)C)N1C(=O)OCC`, the “activation” value was inactive: 13.2%.

As to `O=[N+]([O-])C(/C=C(\Cl)[N+](=O)[O-])=C(N1CCCCC1)N1CCCCC1`, the activation was inactive: 6.67% [at 9.22 µM].

For `O=C(Nc1nnc([C@H]2C[C@H](O)[C@@H](CO)O2)s1)c1cccc(Cl)c1`, the “activation” value was inactive: 11.6%.

Take `O=C(Nc1ccccc1F)c1ccc(-c2cccc([N+](=O)[O-])c2)o1`: the Potency was active: 1.41 µM.

As for `COc1ccccc1-c1nc(-c2ccc(Br)o2)no1`, the “activation” value is inactive: 10.2%.

Regarding `COC(=O)c1c(NC(=O)Nc2ccc(Cl)cc2)sc(C)c1C`, the “activation” value was inactive: 12%.

For the compound `COC(=O)/C=C1/N/C(=N\c2nc(C)cc(C)n2)N(c2ccc(C)c(C)c2)C1=O`, the “activation” value is inactive: 12.2%.

Regarding `O=C1/C(=C/c2ccco2)SC(=S)N1C1CCS(=O)(=O)C1` (stereo not drawn), the “activation” value was inactive: 0.198%.

Turning to `O=c1[nH]c(O)c(/C=C2\C=Nc3ccc(Br)cc32)[nH]1`, the Potency is active: 10 µM.

Regarding `Oc1ccccc1/C=N/NC(=S)NC1CC2C=CC1C2` (stereo not drawn), the “activation” value is inactive: 8.27%.

`Cc1cccc(C)c1-n1nnnc1C1c2ccccc2C(=O)N1CCc1ccccc1F` (stereo not drawn): the Potency was active: 12.6 µM.
